Source: PubChem BioAssay AID588689 (Southern Research Specialized Biocontainment Screening …, 2011)
Some of the results follow. These are further read-outs of the screen, such as a control signal, another cell line or another target. No call is given for them.

Each compound was assayed against Genome polyprotein (Dengue virus type 2 (strain 16681-PDK53)) (UniProt P29991) (assay: flavivirus cap methylation enzyme inhibition – biochemical, confirmation dose response, primary screen (AID 588689)). Details: Dengue-2 NS5 methyltransferase capping enzyme assay, measured here: pilot screen replicate inhibition, at 25 µM, stronger effect = higher value.
`Cc1ccc(S(=O)(=O)N2[C@@H](c3ccc(Br)cc3)C(C(=O)O)=C[C@H]2CC2CCCC2)cc1` gave an inhibition of 7.95%. Compound `Cc1ccc(S(=O)(=O)N2[C@@H](c3ccc(Br)cc3)C(C(=O)O)=CC[C@H]2c2ccc(C(C)C)cc2)cc1` has an inhibition of 9.46%. With `O=C1C(Cl)=C(N2CCCCC2)C(=O)C(Cl)=C1c1cnc(N2CCCCC2)s1` the inhibition was 62.1%. `CCOc1ccc2nc(N3CCCN(C(=O)Nc4ccccc4C)CC3)c(C#N)cc2c1` showed an inhibition of 16.1%. Work on `COc1cc([N+](=O)[O-])ccc1-c1ccc(/C=N\n2cnnc2)o1` yielded an inhibition of 11.9%. Work on `COc1cc2c3c(c1)-c1c(sn(-c4cc(OC)ccc4OC)c1=S)C(C)(C)N3C(=O)C2=O` yielded an inhibition of 3.64%. For `CCOC(=O)CSc1nc2cc(OCC)ccc2cc1C#N`, the inhibition was 5.78%. In the case of `CCOc1cc(C(=O)Nc2ccc3c4c(cccc24)C(=O)N3CC)cc(OCC)c1OCC`, the inhibition is reported as 11.5%. For `COC(=O)C1=CN(c2cccc(C)c2)C=C(C(=O)OC)C1c1cc(OC)c(O)c([N+](=O)[O-])c1`, the inhibition was 5.94%. In the case of `CN1CCN(C2=C(Cl)C(=O)C(c3cnc(N4CCCCC4)s3)=C(Cl)C2=O)CC1`, the inhibition is reported as 75.1%. Compound `Cc1ccc(S(=O)(=O)C(C#N)c2nc3ccccc3nc2N2CC(C)OC(C)C2)cc1C` (stereo not given) has an inhibition of 26.6%. `O=C(O)CCn1c2c(c3ccccc31)CCCC2` showed an inhibition of -2.43%. For `CCn1c(O)c(/C=N/N=C/c2ccccc2)c2ccc(C3=NNC(=O)CC3)cc21`, the inhibition was 33.4%. `COc1cc(C2C(C#N)=C(N)Oc3c2ccc2ccccc32)ccc1OCC(=O)Nc1ccccc1C` (stereo not given) gave an inhibition of 5.63%. `CCOC(=O)C1C(=O)NC(SCC(N)=O)=C(C#N)C1c1ccccc1OCC` (stereo not given) showed an inhibition of 33.4%. Compound `Cc1ccsc1C=Nc1ccc(O)cc1` has an inhibition of 5.46%. For `CCN=c1scc(C)n1/N=C/c1ccc(O)c(O)c1O`, the inhibition was 66.6%. `O=C(O)CN1C(=O)/C(=C\c2cccc(OCc3ccccc3)c2)SC1=S` showed an inhibition of 11.6%. For `N=c1n(CCN2CCCC2)c2ccccc2n1CC(O)c1ccco1` (stereo not given), the inhibition was 17.3%. Compound `COc1ccc(/C=c2\sc3nc(-c4ccccc4OC)nn3c2=O)c(OC)c1` has an inhibition of 14%. `C=CCc1cccc(/C=N/n2cnnc2)c1O` gave an inhibition of 7.25%. `CCN(CC)c1nc2ccccc2nc1C(C#N)C(=O)NCCc1ccccc1` (stereo not given) was tested, and the inhibition was 34.3%. Work on `Cc1cc(SCC(=O)N/N=C/c2ccc(O)c(O)c2O)c(C)cc1Br` yielded an inhibition of 71.8%. Work on `CCc1c(C)[nH]n(-c2ccc(Oc3ccccc3)c(S(=O)(=O)O)c2)c1=O` yielded an inhibition of 20.6%. For `O=C(O)c1ccc(-n2nc(C(F)(F)F)c3c2-c2ccoc2CC3)cc1`, the inhibition was -4.87%. `CC1=CC2=C(OC1N(C)C)c1cccc3cccc(c13)C2=O` (stereo not given) showed an inhibition of 23.6%. Compound `COc1ccc(N=c2oc3c(OC)cccc3cc2C(=O)NCc2ccco2)c(OC)c1` has an inhibition of 4.24%. Compound `O=C(O)CC1S/C(=N/N=C/c2ccc(-c3ccccc3[N+](=O)[O-])o2)NC1=O` (stereo not given) has an inhibition of 22.4%. For `O=C1NC(=O)/C(=C/c2ccc(-c3cc(C(=O)O)ccc3Cl)o2)S1`, the inhibition was 36.3%. With `O=[n+]1c2c(n([O-])c3cc(F)c(N4CCCC4)cc31)CCC2` the inhibition was 33.4%. `CCOc1ccc(N(C)c2ccc(/C=C3/SC(=S)NC3=O)cc2)cc1` gave an inhibition of 29.5%. For `O=C(O)/C=C/C(=O)c1c(-c2ccccc2)[nH]c2ccccc12`, the inhibition was -3.62%. Work on `CCOc1ccc(C(c2c(O)nc(SC)n(C)c2=O)c2c(O)nc(SC)n(C)c2=O)cc1` yielded an inhibition of 14.3%. For `O=Cc1ccc(Sc2nnc(-c3ccccc3)o2)c([N+](=O)[O-])c1`, the inhibition was 4.72%. `Nc1nonc1C(=O)NCCN=Cc1cc(Cc2ccccc2)cc(Br)c1O` was tested, and the inhibition was 9.71%. For `COc1ccccc1Nc1nc2ccc(C)cc2cc1C#N`, the inhibition was 3.35%. In the case of `Cn1c2ccccc2c(=O)c2ccc(NCc3ccc4c(c3)OCO4)cc21`, the inhibition is reported as 14%. With `CCOc1c(Cl)cc(C(=O)Nc2ccccc2C(=O)O)cc1Cl` the inhibition was 25.5%. With `CCCCCCc1cc2cc(-c3nnc(-c4ccccc4OC)o3)c(=O)oc2cc1O` the inhibition was 33.9%. `CC(=O)N1C(=O)C(=C2C=C(C)OC(C)=C2)c2ccccc21` gave an inhibition of 33.9%. Work on `CCCCCCOC(=O)C(C#N)c1nc2ccccc2nc1N1CCOCC1` (stereo not given) yielded an inhibition of 18.5%. In the case of `CC1(C)CCN2CCC(C)(C)c3c(O)ccc1c32`, the inhibition is reported as 29.5%. Work on `O=C(Nc1ccc(-c2nc3ccccc3o2)c(O)c1)c1cc(-n2cnnc2)ccc1Cl` yielded an inhibition of -3.35%. For `CCc1ccc([C@@H]2CC=C(C(=O)O)[C@H](c3ccc(C(C)(C)C)cc3)N2S(=O)(=O)c2ccc(C)cc2)cc1`, the inhibition was 12.5%. `NC(=S)Nc1cccc2cc3ccccc3cc12` showed an inhibition of 35.8%. For `O=C(O)c1cccc(N2C(=O)c3cc([N+](=O)[O-])cc4cc([N+](=O)[O-])cc(c34)C2=O)c1`, the inhibition was 19.5%. With `COc1ccc(/C=C2\C(=O)ON=C2c2ccccc2)cc1OC` the inhibition was 38.4%. `Cc1cc(C)n2nc3nc4c(cc3c2n1)CCCC4` showed an inhibition of 33.9%. For `O=C(c1ccccc1NS(=O)(=O)c1ccc([N+](=O)[O-])cc1[N+](=O)[O-])N1O[C@@H]2C=C[C@H]1C2`, the inhibition was 45.7%. For `Cc1ccc2c(c1)c1c(n2C)C(C(N)=O)CCC1` (stereo not given), the inhibition was 0.61%.
